{"source": "PubChem BioAssay AID686979", "about": "(National Center for Advancing Translational Sciences (NCATS), 2013)", "note": "The campaign covered roughly 420,000 compounds. About 50,000 (12%) were called active. Inconclusive results, whose numbers are uncertain, are shown with a selection of clear calls. The call rests on the fitted dose curve; in most records, active means well fitted inhibition curve with a large enough effect; inconclusive means small, poorly fitted or top-dose-only effect; inactive means flat fitted curve, though single readings scatter. No potency is given beside an inconclusive call; the fits are too rough. On the % scale 0 is the no-effect control and ±100 the full control effect; potency means the concentration at half of the fitted maximal effect; tags describe the fitted curve by direction and shape.", "data": [{"test": "qHTS for Inhibitors of human tyrosyl-DNA phosphodiesterase 1 (TDP1): qHTS in cells in presence of CPT; further: nearly all actives have a fitted effect of over 55% in size", "details": "chicken DT40 Tdp1-/-;hTDP1 cells + 20 nM CPT, ATP luminescence, 48 h; activity change, negative = growth inhibition: at 46.2 µM (top of the series) unless noted", "summary_of_the_method": "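Chicken DT40 Tdp1-/- cells stably complemented with human TDP1 were seeded at 400 cells/well in medium containing 20 nM camptothecin, exposed to pin-transferred compounds, and grown at 37 °C for at least 48 hr. Viability was read as ATP luminescence.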", "values": [{"smiles": "Cc1cccc(OCC(=O)NC(=S)N2CCCc3ccccc32)c1", "Potency": "inconclusive [inhibitor, single point]"}, {"smiles": "CCN1C(=NCc2ccc(OC)cc2)N[C@@H](CCc2ccccc2)[C@H](C(=O)NCc2ccc(OC)cc2)[C@H]1C", "Potency": "active: 18.4 µM"}, {"smiles": "CCC(=O)N(Cc1cc2cc(OC)ccc2[nH]c1=O)c1ccccc1OC", "Potency": "inconclusive [inhibitor, single point]"}, {"smiles": "COc1ccc(C)cc1NC(=O)C(C)N(c1ccc(C)cc1)S(C)(=O)=O", "note": "(stereo not given)", "activity change, negative = growth inhibition": "inactive: -7.62%"}, {"smiles": "Cc1cn([C@H]2C[C@H](O)[C@@H](CCC(=O)NCc3cccc4ccccc34)O2)c(=O)[nH]c1=O", "activity change, negative = growth inhibition": "inactive: 2.05%"}, {"smiles": "O=C(CCN1CCN(S(=O)(=O)c2ccc(Cl)cc2)CC1)Nc1ccc(F)cc1", "activity change, negative = growth inhibition": "inactive: -24.7%"}, {"smiles": "O=C(CCC(=O)N1Cc2ccccc2Oc2ncccc21)NCc1cccc(Cl)c1", "activity change, negative = growth inhibition": "inconclusive: -30.4% [inhibitor]"}, {"smiles": "CCn1c(SCc2nc3cc(OC)c(OC)cc3c(=O)[nH]2)nc2ccccc21", "Potency": "inconclusive [inhibitor, partial curve]"}, {"smiles": "O=c1[nH]c2ccccc2c(O)c1O", "Potency": "active: 8.2 µM"}, {"smiles": "CCc1ccc(/C=N/NC(=O)c2nnn(-c3nonc3N)c2CN2CCOCC2)cc1", "activity change, negative = growth inhibition": "inactive: -22%"}, {"smiles": "COc1cc2sc3ccc(-c4ccc5[nH]ccc5c4)cc3c(=O)c2cc1OC", "Potency": "active: 5.8 µM"}, {"smiles": "COc1ccc(NC(=O)Cn2c(=O)n(-c3ccc(C)cc3)c(=O)c3c2c2cc(C)ccc2n3C)cc1", "Potency": "inconclusive [inhibitor, full curve, poor fit]"}, {"smiles": "Cc1cc(NS(=O)(=O)c2ccc(NC(=O)CSc3nc4ncccc4[nH]3)cc2)nc(C)n1", "activity change, negative = growth inhibition": "inactive: 13.4%"}, {"smiles": "CCOc1cc2c3c(c1)C1(OCCO1)C(=O)N3C(C)(C)CC2C", "note": "(stereo not given)", "Potency": "inconclusive [inhibitor, single point]"}, {"smiles": "Nc1nc(-c2ccc(Cl)cc2)nn1C(=O)c1cccs1", "Potency": "inconclusive [inhibitor, single point]"}, {"smiles": "Cc1nn(C)c(C)c1S(=O)(=O)N(CC(=O)Nc1ccc(F)cc1F)c1ccc(C(C)C)cc1", "Potency": "inconclusive [inhibitor, single point]"}, {"smiles": "Cc1ccc(Cc2c(C)nc3nc(SCC(=O)NCCC(C)C)nn3c2C)cc1", "Potency": "inconclusive [inhibitor, single point]"}, {"smiles": "COc1ccc(OCc2cc(C(=O)NC(C)c3nc(C)cs3)no2)c(Cl)c1", "note": "(stereo not given)", "Potency": "inconclusive [inhibitor, single point]"}, {"smiles": "Cc1ccccc1-c1nc(NC(C)C)nc2ccsc12", "Potency": "inconclusive [inhibitor, single point]"}, {"smiles": "Cc1ccc(CN(C)C(=O)c2ccc(NS(=O)(=O)c3ccc4[nH]c(=O)[nH]c4c3)cc2)cc1", "activity change, negative = growth inhibition": "inactive: 2.59%"}, {"smiles": "COC(=O)c1ccsc1NC(=O)CSc1nnnn1Cc1ccccc1", "Potency": "inconclusive [inhibitor, single point]"}, {"smiles": "COc1ccc(NC(=O)N(C)C[C@H]2Oc3ccc(NC(=O)CCN4CCOCC4)cc3C(=O)N([C@H](C)CO)C[C@@H]2C)cc1", "activity change, negative = growth inhibition": "inactive: 8.12%"}, {"smiles": "Cc1ccc(CN2C(=O)SC(Nc3ccc(Cl)cc3)C2=O)cc1", "note": "(stereo not given)", "Potency": "inconclusive [inhibitor, single point]"}, {"smiles": "C/C(N)=C(/C#N)C(=O)CSc1nn(-c2ccc(Cl)cc2)c(=S)s1", "Potency": "inconclusive [inhibitor, single point]"}, {"smiles": "O=CNCCCc1nc2ccccc2n1Cc1cccc2ccccc12", "Potency": "inconclusive [inhibitor, single point]"}, {"smiles": "COc1ccccc1/C=C/C(=O)/C=C/c1ccccc1O", "Potency": "active: 2.91 µM"}, {"smiles": "COc1ccc(NC(=O)C2(C)Cc3c(-c4ccc(N(C)C)cc4)ccnc3O2)cc1", "note": "(stereo not given)", "Potency": "active: 29.1 µM"}, {"smiles": "Cc1ccc(NC(=O)CC2OC(=O)c3ccccc32)cc1S(=O)(=O)N1CCCCCC1", "note": "(stereo not given)", "Potency": "inconclusive [inhibitor, single point]"}, {"smiles": "CCNc1nc(OC)nc(SCC(N)=O)n1", "activity change, negative = growth inhibition": "inactive: -6.31%"}, {"smiles": "Cc1ccccc1CN1C[C@@H]2C[C@@H](c3ccc4nsnc4c3)N3CCC[C@@]23C1=O", "Potency": "inconclusive [inhibitor, single point]"}, {"smiles": "COc1ccccc1N1CCN(C2CC(=O)N(C)C2=O)CC1", "note": "(stereo not given)", "activity change, negative = growth inhibition": "inactive: 4.49%"}, {"smiles": "O=C(CN1C(=O)NC2(CCCC2)C1=O)Nc1cc(Cl)ccc1N1CCCCC1", "activity change, negative = growth inhibition": "inactive: -12.9%"}, {"smiles": "CCCC[C@@H]1CCCO[C@@](C(=O)NCc2cc(C)n(C)n2)(C(F)(F)F)C1", "Potency": "inconclusive [inhibitor, single point]"}, {"smiles": "Cn1c(=O)[nH]c(=O)c2c1nc(Br)n2CCCSc1nc2ccccc2o1", "Potency": "inconclusive [inhibitor, single point]"}, {"smiles": "CC(C)OC(=O)c1cc2c(ccn2-c2ccc(F)cc2)n1CC(=O)N1CCN(C(=O)c2ccco2)CC1", "Potency": "inconclusive [inhibitor, single point]"}, {"smiles": "COC(CNC(=O)C1CCC(CNS(=O)(=O)c2c(C)cc(C)cc2C)CC1)OC", "note": "(stereo not given)", "activity change, negative = growth inhibition": "inactive: -22.4%"}, {"smiles": "COC(=O)[C@]12CCCCC=C1N(Cc1cccc3ccccc13)C(=O)[C@H](CC(=O)N1CCSCC1)C2", "Potency": "inconclusive [inhibitor, single point]"}, {"smiles": "CC(=O)Nc1ccc(NC(=O)c2c(C)noc2C)cc1", "activity change, negative = growth inhibition": "inactive: 11.9%"}, {"smiles": "CCCCNC(=O)N1CCCN(c2ccc(C#N)cn2)CC1", "activity change, negative = growth inhibition": "inactive: 5.73%"}, {"smiles": "COc1ccccc1NC(=O)CSc1nnc(NC(=O)C2CCC2)s1", "activity change, negative = growth inhibition": "inactive: -25.9%"}, {"smiles": "COc1cccc(CNC(=O)C(=O)NCC(c2ccco2)S(=O)(=O)c2ccccc2)c1", "note": "(stereo not given)", "activity change, negative = growth inhibition": "inactive: -27%"}, {"smiles": "CCCOc1ccc(-c2c(C(=O)N/N=C/c3ccco3)nnn2-c2nonc2N)cc1", "Potency": "inconclusive [inhibitor, single point]"}, {"smiles": "CC1(C)COC(/C=C/c2cccc([N+](=O)[O-])c2)=N1", "Potency": "inconclusive [inhibitor, single point]"}, {"smiles": "O=C(CC1CC2CCC1C2)NCc1cccs1", "note": "(stereo not given)", "activity change, negative = growth inhibition": "inactive: -17.7%"}, {"smiles": "CCn1c2ccccc2c2cc(/C=N/NC(=O)c3ccccc3)ccc21", "Potency": "active: 14.6 µM"}, {"smiles": "O=c1[nH]c(C2CCCN(S(=O)(=O)c3ccccc3F)C2)nc2c1nnn2Cc1ccccc1Cl", "note": "(stereo not given)", "Potency": "inconclusive [inhibitor, partial curve]"}, {"smiles": "CC(C)c1nc(NCCN2CCOCC2)c(C#N)c2c1COC(C)(C)C2", "Potency": "inconclusive [inhibitor, single point]"}, {"smiles": "O=C1C(Cl)=C(Nc2ccccc2)C(=O)c2ccccc21", "Potency": "active: 2.06 µM"}, {"smiles": "Nc1nc(Nc2ccccc2F)nc(NC2CCCCC2)c1[N+](=O)[O-]", "Potency": "inconclusive [inhibitor, single point]"}, {"smiles": "NC(=O)CSc1nc2cc3c(cc2c(=O)n1CCCC(=O)NCc1ccc2c(c1)OCO2)OCO3", "Potency": "inconclusive [inhibitor, partial curve]"}, {"smiles": "COc1ccccc1CNC(=O)c1cnc2sc(N3CCCCC3)nn2c1=O", "Potency": "inconclusive [inhibitor, single point]"}, {"smiles": "Cc1[nH]c2ccccc2c1/C=N/Nc1nc(Nc2ccccc2)nc(N2CCOCC2)n1", "Potency": "active: 8.2 µM"}, {"smiles": "COc1cccc(C2C(C(=O)Nc3ccccc3OC)=C(C)Nc3nc(-c4ccco4)nn32)c1", "note": "(stereo not given)", "Potency": "inconclusive [inhibitor, single point]"}, {"smiles": "CCOC(=O)N1CCN(C(=O)CSCC(=O)Nc2nc(-c3ccc(OC)cc3)cs2)CC1", "Potency": "inconclusive [inhibitor, single point]"}, {"smiles": "N#C/C(=C\\c1cccc2ccccc12)c1nn(-c2ccccc2)c(N)c1C#N", "Potency": "inconclusive [inhibitor, single point]"}, {"smiles": "CN1CCC(Oc2ccccc2Sc2ccc(C(F)(F)F)cc2)CC1", "Potency": "inconclusive [inhibitor, partial curve]"}, {"smiles": "O=C(c1cccnc1)C1CCCN(Cc2ccc3c(c2)CN(C(=O)c2cccc(Cl)c2)CCO3)C1", "note": "(stereo not given)", "Potency": "inconclusive [inhibitor, single point]"}, {"smiles": "CC(=O)c1cccc(OCC(=O)Nc2cc(S(=O)(=O)N3CCOCC3)ccc2N2CCCC2)c1", "activity change, negative = growth inhibition": "inactive: -12.2%"}, {"smiles": "CC1CCCCC1NC(=O)CCS(=O)(=O)c1ccc(Cl)cc1", "note": "(stereo not given)", "Potency": "inconclusive [inhibitor, partial curve]"}, {"smiles": "COc1cc(OC)cc(C(=O)NC2CCN(CCCOc3ccccc3)CC2)c1", "activity change, negative = growth inhibition": "inactive: -5.85%"}, {"smiles": "O=C(N/N=C\\CCc1ccccc1)c1ccco1", "Potency": "inconclusive [inhibitor, single point]"}, {"smiles": "Cc1cccc(C(=O)N2[C@@H](C(C)C)COc3cc(Br)ccc3S2(=O)=O)c1", "Potency": "inconclusive [inhibitor, single point]"}, {"smiles": "CCCC(=O)Nc1nnc(SCC(=O)Nc2ccc3c(c2)OCO3)s1", "activity change, negative = growth inhibition": "inactive: 3.3%"}, {"smiles": "Cc1noc(C)c1NC(=O)N(C)C[C@H]1OCc2cnnn2CCCC(=O)N([C@@H](C)CO)C[C@H]1C", "activity change, negative = growth inhibition": "inactive: 1.28%"}, {"smiles": "CC(C)C[C@H]1CNC(=S)N1C[C@H]1CCCN1C[C@H](Cc1ccccc1)N1C[C@H](Cc2ccc(O)cc2)N(CC2CCCCCC2)C1=S", "Potency": "active: 14.6 µM"}, {"smiles": "CCCn1c(=O)c(C(=O)NCCCc2ccccc2)c(O)c2ccccc21", "Potency": "inconclusive [inhibitor, single point]"}, {"smiles": "CC(C)(C)NC(=O)CSC(=Nc1ccccc1F)NC#N", "Potency": "inconclusive [inhibitor, single point]"}, {"smiles": "CCC(Sc1nnc2c3ccccc3n(CC)c2n1)C(=O)Nc1ccc(NC(C)=O)cc1", "note": "(stereo not given)", "Potency": "inconclusive [inhibitor, single point]"}, {"smiles": "Cc1ccsc1/C=N/N1CCN(Cc2ccccc2)CC1", "activity change, negative = growth inhibition": "inactive: 0.184%"}, {"smiles": "Cc1ccccc1-c1nc(CS(=O)(=O)CC(=O)NCCCc2ccccc2)c(C)o1", "Potency": "inconclusive [inhibitor, single point]"}]}]}
